Results on 32 molecules are retold here after the supplement of paper PMC8047034.

Counter-ions that a name gives are not always drawn. The list shows a part of the results. Single values are uncertain, as repeats are few or missing.

For this experiment, the system named is OVCAR4. Put plainly: log2 surviving fraction (library drug vs vehicle, or drug + carboplatin vs carboplatin alone; relative to plate median); ovarian cancer lines: OVCAR4 is platinum-sensitive and Ov4Carbo platinum-resistant; higher = more cell survival. Conditions: library drug concentration 10 µM; 7 days; carboplatin co-treatment 5 µM.
As for `CCCCc1nc(Cl)c(CO)n1Cc1ccc(-c2ccccc2-c2nnn[nH]2)cc1` [Losartan potassium], the log2 surviving fraction came to 1.66. The same measure for `CC(C)CC(N)=O` [Isovaleramide]: 1.05. The same measure for `CN1Cc2c(N)cccc2C(c2ccccc2)C1` (configuration not stated) [Nomifensine Maleate]: -8.72; for `CS(=O)(=O)c1ccc([C@@H](O)[C@@H](CO)NC(=O)C(Cl)Cl)cc1` [Thiamphenicol (Thiophenicol)]: -0.111; for `CCCCCCCCOc1ccccc1C(=O)Nc1ccc(C(=O)OCC[N+](C)(CC)CC)cc1` [Otilonium Bromide]: 0.73. The value for `c1ccc(C2CN3CCSC3=N2)cc1` (configuration not stated) [Tetramisole HCl] was -0.012; that for `Nc1ccn(C[C@@H](CO)OCP(=O)(O)O)c(=O)n1` [Cidofovir (Vistide)] was 0.738; that for `COc1c(C)c2c(c(O)c1C/C=C(\C)CCC(=O)O)C(=O)OC2` [Mycophenolic (Mycophenolate)] was -4.31. On to `CCC[C@@H]1C[C@@H](C(=O)N[C@@H]([C@H]2O[C@H](SC)[C@H](O)[C@@H](O)[C@H]2O)[C@@H](C)O)N(C)C1` [Lincomycin hydrochloride (Lincocin)], for which the log2 surviving fraction came out at 0.538. The same measure for `Cn1c(=O)c2[nH]cnc2n(C)c1=O` [Aminophylline (Truphylline)]: 0.345; for `CN(C)[C@@H]1C(O)=C(C(N)=O)C(=O)[C@@]2(O)C(O)=C3C(=O)c4c(O)cccc4[C@@](C)(O)[C@H]3[C@H](O)[C@@H]12` [Oxytetracycline (Terramycin)]: 0.641; for `CN/C(=N\CCSCc1nc[nH]c1C)NC#N` [Cimetidine (Tagamet)]: 1.18.

For the molecule `N#CC[C@H](C1CCCC1)n1cc(-c2ncnc3[nH]ccc23)cn1`, the log2 surviving fraction is -1.07. The same measure for `Cn1cnc([N+](=O)[O-])c1Sc1ncnc2[nH]cnc12` [Azathioprine (Azasan, Imuran)]: -1.52. The same measure for `Cc1nnc(C(=O)NC(C)(C)c2nc(C(=O)NCc3ccc(F)cc3)c(O)c(=O)n2C)o1` [Raltegravir (MK-0518)]: 1.2; for `NCCS` [Cysteamine HCl]: -2.91; for `CCOc1nc2cccc(C(=O)O)c2n1Cc1ccc(-c2ccccc2-c2nnn[nH]2)cc1` [Candesartan (Atacand)]: 0.371. The same measure for `Cc1nccn1CC1CCc2c(c3ccccc3n2C)C1=O` (configuration not stated) [Ondansetron hydrochloride (Zofran)]: 0.253; for `COc1ccc(CN2CCN(C(c3ccc(F)cc3)c3ccc(F)cc3)CC2)c(OC)c1OC` [Lomerizine HCl]: 0.38; for `CN1CCN(C2=Nc3ccccc3Oc3ccc(Cl)cc32)CC1` [Loxapine Succinate]: 0.012. As to `CC(NC(C)(C)C)C(=O)c1cccc(Cl)c1` (configuration not stated) [Amfebutamone (Bupropion)], the log2 surviving fraction is -0.0759. The same measure for `CC(=O)OCC1=C(C(=O)O)N2C(=O)[C@@H](NC(=O)CSc3ccncc3)[C@H]2SC1` [Cephapirin Sodium]: -0.388; for `C[C@@H](O[C@H]1OCCN(Cc2nn(P(=O)(O)O)c(=O)[nH]2)[C@H]1c1ccc(F)cc1)c1cc(C(F)(F)F)cc(C(F)(F)F)c1` [Fosaprepitant dimeglumine]: -2.01; for `COc1cc(Cc2cnc(N)nc2N)cc(OC)c1OC` [Trimethoprim]: 0.438. The same measure for `C#C[C@]1(O)CC[C@H]2[C@@H]3CCC4=CC(=O)CC[C@@H]4[C@H]3CC[C@@]21CC` [Levonorgestrel (Levonelle)]: 0.536. The same measure for `CNCC(O)c1ccc(O)c(O)c1` (racemic) [DL-Adrenaline]: -0.992; for `CCN(CC)CCNC(C(=O)OCCC(C)C)c1ccccc1` (configuration not stated) [Camylofin Chlorhydrate]: -1.51. On to `CCN(CC)C(=O)/C(C#N)=C/c1cc(O)c(O)c([N+](=O)[O-])c1` [Entacapone], for which the log2 surviving fraction stood at 0.645. On to `CC(=O)[C@H]1CC[C@H]2[C@@H]3CCC4=CC(=O)CC[C@]4(C)[C@H]3CC[C@]12C` [Progesterone (Prometrium)], for which the log2 surviving fraction was -0.299.

Take `CC1CC(OC(=O)C(O)c2ccccc2)CC(C)(C)C1` (configuration not stated) [Cyclandelate]: the log2 surviving fraction was -1.07. The same measure for `O=c1[nH]c(=O)n(C2CCCO2)cc1F` (configuration not stated) [Ftorafur]: -7.48; for `CC[C@H](C)C[C@H](C)CCCCCCCCC(=O)N[C@H]1C[C@@H](O)[C@@H](NCCN)NC(=O)[C@@H]2[C@@H](O)CCN2C(=O)[C@H]([C@H](O)CCN)NC(=O)[C@H]([C@H](O)[C@@H](O)c2ccc(O)cc2)NC(=O)[C@@H]2C[C@@H](O)CN2C(=O)[C@H]([C@@H](C)O)NC1=O` [Caspofungin acetate]: 0.876.
